Measured values from patent US20230278972A1, “SUBSTITUTED HALOALKYL SULFONANILIDE HERBICIDES” (FMC Corporation, priority 2020, published 2023).

How the values were obtained:
Conditions in all cases: Flood, 250 g ai/ha; visual rating after 13 to 15 days; scale of 0 to 100 where 0 is no effect and 100 is complete control
[1] = test system: rice (Oryza sativa); assay: Test B flooded paddy test, rice
[2] = test system: ducksalad (Heteranthera limosa); assay: Test B flooded paddy test, ducksalad
[3] = test system: barnyardgrass (Echinochloa crus-galli); assay: Test B flooded paddy test, barnyardgrass
[4] = test system: sedge, umbrella (small-flower umbrella sedge, Cyperus difformis); assay: Test B flooded paddy test, sedge, umbrella

| SMILES | Plant response rating, Rice [1] | Plant response rating, Ducksalad [2] | Plant response rating, Barnyardgrass [3] | Plant response rating, Sedge, Umbrella [4] |
| --- | --- | --- | --- | --- |
| CCn1nc(C)cc(-c2cc(NS(=O)(=O)C(F)(F)F)c(C)cc2C)c1=O [Compound 68] | 55 | 15 | 35 | 75 |
| Cc1cc(C)c(C2=NOC3(C2)CC(C)CC(C)C3)cc1NS(=O)(=O)C(F)(F)F (single isomer, unassigned) [Compound 167] | 0 | 0 | 0 | 0 |
| CC(=O)N(c1cc(-c2ccnn(C)c2=O)c(C)cc1C)S(=O)(=O)C(F)(F)F [Compound 56] | 75 | 20 | 40 | 90 |
| COC1CCCN(C(=O)c2cc(NS(=O)(=O)C(F)(F)F)c(C)c(F)c2C)C1 (centres unmarked) [Compound 98] | 0 | 75 | 10 | 90 |
| Cc1ccc(=O)n(-c2cc(NS(=O)(=O)C(F)(F)F)c(C)cc2C)n1 [Compound 85] | 0 | 0 | 0 | 0 |
| Cc1cc(C)c(C2=NOC3CCCC23)cc1NS(=O)(=O)C(F)(F)F (centres unmarked) [Compound 164] | 0 | 85 | 90 | 95 |
| Cc1cc(C)c(N(S(=O)(=O)C(F)(F)F)S(=O)(=O)C(F)(F)F)cc1-c1cc(Cl)nn(C)c1=O [Compound 74] | 0 | 0 | 0 | 0 |
| Cc1cc(C)c(C2=NOC(C)(C)C2)cc1NS(=O)(=O)C(F)(F)F [Compound 206] | 0 | 75 | 0 | 95 |
| COc1cnn(-c2cc(N(S(=O)(=O)C(F)(F)F)S(=O)(=O)C(F)(F)F)c(C)cc2C)c(=O)c1OC [Compound 40] | 0 | 0 | 0 | 0 |
| Cc1cc(C#N)c(C(=O)N(C)C)cc1NS(=O)(=O)C(F)(F)F [Compound 134] | 0 | 0 | 0 | 45 |
| Cc1cc(Cl)c(C(=O)N2CCOCC2)cc1N(S(=O)(=O)C(F)(F)F)S(=O)(=O)C(F)(F)F [Compound 250] | 0 | 85 | 10 | 98 |
| CCn1cc(-c2cc(NS(=O)(=O)C(F)(F)F)c(C)cc2C)c(=O)n(CC)c1=O [Compound 44] | 0 | 0 | 0 | 0 |
| Cc1ccc(-c2ccnn(C)c2=O)cc1NS(=O)(=O)C(F)(F)F [Compound 59] | 0 | 0 | 0 | 0 |
| Cc1cc(Cl)c(NS(=O)(=O)C(F)(F)F)cc1C(=O)N1CCOC(C)C1 (centres unmarked) [Compound 1] | 30 | 65 | 0 | 70 |
| Cc1cc(C)c(C(=O)N(C)CC2CC2)cc1NS(=O)(=O)C(F)(F)F [Compound 107] | 0 | 30 | 0 | 85 |
| Cc1cc(C)c(C2=NOC3(C2)CC(C)(C)CC(C)(C)C3)cc1NS(=O)(=O)C(F)(F)F [Compound 122] | 0 | 0 | 0 | 0 |
| CCn1c(=O)c(-c2cc(NS(=O)(=O)C(F)(F)F)c(C)cc2C)cn(C)c1=O [Compound 37] | 70 | 25 | 65 | 45 |
| Cc1cc(C)c(-n2ncccc2=O)cc1NS(=O)(=O)C(F)(F)F [Compound 83] | 0 | 0 | 0 | 0 |
| Cc1cc(F)c(C(=O)N2CCOCC2)cc1N(S(=O)(=O)C(F)(F)F)S(=O)(=O)C(F)(F)F [Compound 237] | 0 | 35 | 30 | 65 |

| SMILES | Plant response rating, Rice [1] | Plant response rating, Ducksalad [2] | Plant response rating, Barnyardgrass [3] | Plant response rating, Sedge, Umbrella [4] |
| --- | --- | --- | --- | --- |
| Cc1cc(C)c(C2=NOC3(CCC4(CC3)OCCO4)C2)cc1NS(=O)(=O)C(F)(F)F [Compound 135] | 10 | 85 | 30 | 75 |
| Cc1cc(C)c(-c2ccnn(C(C)C)c2=O)cc1NS(=O)(=O)C(F)(F)F [Compound 78] | 0 | 20 | 0 | 95 |
| Cc1cc(C)c(N(S(C)(=O)=O)S(=O)(=O)C(F)(F)F)cc1-c1ccnn(C)c1=O [Compound 73] | 0 | 0 | 0 | 0 |
| Cc1cc(Cl)c(NS(=O)(=O)C(F)(F)F)cc1C(=O)N1CCC(F)CC1 [Compound 201] | 0 | 75 | 0 | 75 |
| Cc1cc(-c2cc(N(S(=O)(=O)C(F)(F)F)S(=O)(=O)C(F)(F)F)c(C)cc2C)c(=O)n(C)n1 [Compound 75] | 0 | 0 | 0 | 0 |
| Cc1cc(C)c(N(S(=O)(=O)C(F)(F)F)S(=O)(=O)C(F)(F)F)cc1C(=O)N1CCC(C#N)CC1 [Compound 161] | 35 | 70 | 90 | 90 |
| CCCCC(=O)OCN(c1cc(C2=NOC3(CCCC3)C2)c(C)cc1C)S(=O)(=O)C(F)(F)F [Compound 143] | 0 | 35 | 95 | 95 |
| Cc1cc(Cl)c(C(=O)N2CCCCC2)cc1NS(=O)(=O)C(F)(F)F [Compound 252] | 0 | 85 | 10 | 95 |
| Cc1cc(C)c(N(S(=O)(=O)C(F)(F)F)S(=O)(=O)C(F)(F)F)cc1C(=O)N1CCCOCC1 [Compound 276] | 15 | 55 | 15 | 85 |
| Cc1cc(C)c(C2=NOC3CCCCC23)cc1NS(=O)(=O)C(F)(F)F (racemic) [Compound 125] | 0 | 30 | 0 | 85 |
| Cc1cc(F)c(C(=O)N2CCOCC2)cc1NS(=O)(=O)C(F)(F)F [Compound 240] | 0 | 75 | 15 | 85 |
| Cc1cc(C)c(C2=NOC3(CCSCC3)C2)cc1NS(=O)(=O)C(F)(F)F [Compound 176] | 0 | 60 | 30 | 65 |
| CCn1nc(C)cc(-c2cc(N(S(=O)(=O)C(F)(F)F)S(=O)(=O)C(F)(F)F)c(C)cc2C)c1=O [Compound 52] | 0 | 0 | 0 | 70 |
| Cc1cc(Cl)c(NS(=O)(=O)C(F)(F)F)cc1C(=O)N1CCC(C#N)CC1 [Compound 17] | 0 | 70 | 0 | 95 |
| Cc1cc(C)c(-n2nccc(Cl)c2=O)cc1NS(=O)(=O)C(F)(F)F [Compound 82] | 0 | 75 | 0 | 85 |
| Cc1cc(C)c(C2=NOC3(CCC(F)(F)CC3)C2)cc1NS(=O)(=O)C(F)(F)F [Compound 172] | 55 | 65 | 15 | 45 |
| CSC(=O)N(c1cc(C2=NOC3(CCCC3)C2)c(C)cc1C)S(=O)(=O)C(F)(F)F [Compound 219] | 0 | 30 | 55 | 90 |
| Cc1cc(C(F)(F)F)c(C(=O)N2CCCCC2)cc1NS(=O)(=O)C(F)(F)F [Compound 180] | 0 | 35 | 0 | 80 |
| Cc1cc(C)c(N(S(=O)(=O)C(F)(F)F)S(=O)(=O)C(F)(F)F)cc1C(=O)N1CCCC(F)C1 (centres unmarked) [Compound 118] | 0 | 50 | 35 | 55 |
